These results are taken from PubChem BioAssay AID1508623 (National Center for Advancing Translational Sciences (NCATS), 2021).

Molecules are shown by their SMILES. The campaign covered roughly 48,000 compounds. About 450 (0.94%) were called active. Not shown: some 19% with an inconclusive outcome. Calls follow the shape of the dose curve; as a rule, active = well fitted inhibition curve with a large enough effect; inconclusive = small, poorly fitted or top-dose-only effect; inactive = no such curve, though single readings can be large or run the other way. The list shows a part of the results.

This assay is described as follows: Primary qHTS for Identification of Small Molecule Inhibitors of Huntingtin Promoter Activity. Also: nearly all actives have a fitted effect of over 50% in size. The conditions noted are these: HEK293 HTT promoter firefly luciferase reporter (activity 0% = vehicle and -100% = no light), 24 h; series mostly up to 57.5 µM; activity change, negative = inhibition: at the top concentration. The method, boiled down:
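Firefly luciferase signal from promoter-reporter HEK293 cells was scaled between vehicle (0%) and zero RLU (-100%). Compounds were tested at final concentrations of up to 57.5 uM over 24 h at 37 degrees C. PTC124 at 50 uM final served as control inhibitor.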
In the case of `COc1ccc(CCNC(=O)NCc2noc3ccccc23)c(OC)c1`, the “activity change, negative = inhibition” value was inactive: -14.8%.
Turning to `CC(C)NCC(O)c1ccc(NS(C)(=O)=O)cc1` (configuration not stated), the “activity change, negative = inhibition” value is inactive: 6.27%.
The same measure for `Cc1cccc(-c2nc3c(C#N)c[nH]n3c2NC2CCCCC2)c1`: inactive: 8.82%.
In the case of `Cc1nn(-c2ccc3nncn3n2)c(C)c1CCC(=O)Nc1ccc(OC(F)(F)F)cc1` it was inactive: -12.9%.
Regarding `Cc1ccccc1CNC(=O)c1ccc(-n2c(C)cc3c2CCCC3)cc1`, the “activity change, negative = inhibition” value is inactive: 10.2%.
In the case of `COc1ccccc1CNC(=O)C1CCN(Cc2nc(-c3ccc(OC)c(OC)c3)oc2C)CC1` it was inactive: -8.91%; in that of `CCCN(CCC)C(=O)Cn1c(=O)n(Cc2ccc(C(=O)NCCc3ccc(OC)c(OC)c3)cc2)c(=O)c2ccccc21`, inactive: -16.9%.
The same measure for `CCCN(C(=O)c1cc2c(Cl)nc3ccccc3c2s1)c1cccc(C)c1`: inactive: -18.2%; for `COCCNC(=O)c1ccc(Cn2c(SCC(=O)NC(C)C)nc3ccccc3c2=O)cc1`: inactive: 1.2%.
In the case of `COc1ccc(-c2cc3nc(C4CCN(C(=O)OC(C)(C)C)CC4)c(C(=O)Nc4cc(Cl)cc(Cl)c4)cn3n2)cc1` it was inactive: -5.18%; in that of `COc1ccc(CNC(=O)c2ccc3c(c2)N(Cc2ccccc2)C(=O)c2ccccc2S3(=O)=O)cc1`, inactive: -11.5%.
`CCOc1ccccc1N(C)C(=O)c1nn(-c2ccc(C)cc2)c(=O)c2c1c1ccccc1n2C`: the “activity change, negative = inhibition” value is inactive: -1.34%.
The same measure for `COc1cc(C=O)ccc1O`: inactive: 0.506%; for `COc1ccc(OC)c(NC(=O)c2csnn2)c1`: inactive: 2.93%.
Consider `COCCCNC(=O)c1cc(-c2cccnc2)nc2ccccc12`, for which the “activity change, negative = inhibition” value was inactive: -21.5%.
The same measure for `CCOc1ccccc1-c1nnc(SCc2ccc(Cl)cc2)o1`: inactive: -9.6%; for `COc1ccc(-n2c(SCC(=O)N3CCC(C)CC3)nc3c([nH]c4ccccc43)c2=O)cc1`: inactive: -8.87%.
The same measure for `CC1=C(C(=O)Nc2ccc(C)cc2C)C(c2sccc2C)n2ncnc2N1` (configuration not stated): inactive: -10.2%; for `CCOc1cccc(C2c3c(oc4ccccc4c3=O)C(=O)N2c2nc(C)c(C(=O)OC)s2)c1` (configuration not stated): inactive: -19.6% [at 11.5 µM].
The same measure for `COc1ccc2cccc(CCNC(C)=O)c2c1`: inactive: -1.91%.
Turning to `Cc1ccc2occ(CC(=O)Nc3nnc(C(C)C)s3)c2c1`, the “activity change, negative = inhibition” value is inactive: -29.7%.
For the molecule `Cc1ccc(-n2ncc(C(=O)Nc3ccc(C)c(F)c3)c2C2CCN(C(=O)OC(C)(C)C)CC2)cc1C`, the “activity change, negative = inhibition” value is inactive: -1.97%.
In the case of `CCOc1cc(C2c3c(oc4ccccc4c3=O)C(=O)N2Cc2ccc3c(c2)OCO3)ccc1O` (configuration not stated) it was inactive: 3.09%; in that of `Cc1ccc(CNC(=O)CCCCn2c(=O)c3ccccc3n(Cc3ccc(Cl)cc3)c2=O)cc1`, inactive: -5.04%.
In the case of `CCC(C(=O)OCc1cc(=O)n2nc(CCOC)sc2n1)c1ccccc1` (configuration not stated) it was inactive: -12.5%; in that of `Cc1ccccc1NC(=O)c1nc(-c2ccncc2)no1`, inactive: 9.5%; in that of `Cc1ccc(NC(=O)Cn2c(CCC(=O)O)ccc2-c2cccs2)cc1`, inactive: -28.4%.
The same measure for `COc1cccc(N2CCN(c3nc4ccc(C(=O)c5ccccc5)cc4n4c(C)nnc34)CC2)c1`: inactive: 6.24%.
As to `Cc1cc(C)c2c(=O)cc(C(=O)Nc3ccc(S(=O)(=O)Nc4nc(C)cc(C)n4)cc3)oc2c1`, the “activity change, negative = inhibition” value is inactive: 14%.
The same measure for `Cc1ccc(-c2cn3c(n2)sc2cc(C(=O)N4CCCCC4)ccc23)cc1`: inactive: -29.4%; for `COC(=O)C(C)Sc1nc2c([nH]c3ccccc32)c(=O)n1-c1ccc(OC)cc1` (configuration not stated): inactive: -8.06%; for `O=C(Nc1ccc2nc(SCC(=O)N3CCCC3)sc2c1)c1ccc(F)cc1`: inactive: -21.7%.
In the case of `COc1ccc(CNC(=O)CCCn2c(SCC(N)=O)nc3cc4c(cc3c2=O)OCO4)cc1` it was inactive: -23.3%; in that of `Cc1cc(Nc2cccc(Cl)c2C)n2nc(Cc3ccccc3)nc2n1`, inactive: -28.3%.
The same measure for `CCOc1ccccc1NC(=O)Cn1c(=O)n(Cc2ccccc2)c(=O)c2c(C)c(C(=O)N(C)C)sc21`: inactive: -3.4%; for `CCN(CC)C(=O)CSc1nc2cc3c(cc2c(=O)n1Cc1ccc(C(=O)NCCc2ccc(OC)c(OC)c2)cc1)OCO3`: inactive: -21.3%.
With `COc1cc(Cl)c(C)cc1NC(=O)c1cn(CC(C)C)c(=O)c2cc(OC)c(OC)cc12`, the “activity change, negative = inhibition” value is inactive: -7.34%.
In the case of `CC(C)OCCCNC(=O)CCCn1c(SCC(=O)c2ccc(Br)cc2)nc2c(sc3ccccc32)c1=O` it was inactive: -14.5%.
For `CC(NC(=O)c1ccccc1)c1nc2ccccc2n1Cc1ccc(Cl)cc1` (configuration not stated), the “activity change, negative = inhibition” value was inactive: 14.3%.
The same measure for `COc1ccc(CNC(=O)c2cnn3c(C)c(Cc4ccc(F)cc4)c(C)nc23)cc1`: inactive: -14.5%.
The same measure for `Cc1cc(C)c(NC(=O)Cn2c(=O)n(CCCCC(=O)NCc3ccccc3Cl)c(=O)c3ccccc32)c(C)c1`: inactive: 0.0683%; for `COc1cc(CN(CC2CCCO2)C(=O)c2ccccc2F)cc(OC)c1OC` (configuration not stated): inactive: 2.59%; for `Cc1ccc(Cl)cc1NC(=O)Cn1nc2c(cc1=O)CC(C)CC2` (configuration not stated): inactive: 2.11%.
The same measure for `CCOc1ccc(NC(=O)CN2C(=O)COc3ccc(S(=O)(=O)Nc4ccccc4)cc32)cc1`: inactive: -11%; for `Cc1ccc(OCCSc2nc3ccccc3n2CC(=O)N2CCOCC2)c(C)c1`: inactive: -21%.
On to `COc1ccc(C(=O)Nc2ccc3nc4n(c(=O)c3c2)CCCCC4)cc1OC`, for which the “activity change, negative = inhibition” value was inactive: -5.4%.
The same measure for `CCC(=O)N1CCc2cc(Br)cc(S(=O)(=O)N3CCC(C(=O)NC(C)(C)C)CC3)c21`: inactive: 16.6%.
The same measure for `O=C(NNc1ncnc2c1cnn2-c1ccccc1)c1cccc(Cl)c1`: inactive: -17.7%; for `CC(C)Cn1c(=O)c2ccccc2n2c(-c3cccc(Cl)c3)nnc12`: inactive: -0.777%.
In the case of `COc1ccc(Cl)c(Cn2c(NCCN)nc3c2c(=O)n(C)c(=O)n3C)c1` it was inactive: -10.3%; in that of `COc1ccc(C(=O)NCc2nnnn2-c2ccc(C)c(C)c2)cc1`, inactive: -16.1%; in that of `N#Cc1ccc(-c2cccs2)nc1SCc1ccc(Cl)cc1Cl`, inactive: -10.5%.
In the case of `CCOc1ccc(NC(=O)N2CCOc3ccccc32)cc1`, the “activity change, negative = inhibition” value was inactive: 89.4%.
Turning to `CCc1ccccc1NC(=O)CSc1nnc(-c2nonc2NC(C)=O)n1C`, the “activity change, negative = inhibition” value is inactive: -22.1%.
Regarding `Cc1ccc(Cl)cc1Nc1nc2ccccc2n2c(C)nnc12`, the “activity change, negative = inhibition” value was inactive: -9.19%.
In the case of `CCCOc1ccccc1Cn1c(=O)sc2ccccc21` it was inactive: -16.8%; in that of `CN(CCOc1ccc(NS(C)(=O)=O)cc1)CCc1ccc(NS(C)(=O)=O)cc1`, “inactive”; in that of `CCCCc1nn2c(=O)cc(COC(=O)c3ccccc3NC(=O)C(C)(C)C)nc2s1`, inactive: -12.7%.
As to `Cc1cc(NS(=O)(=O)c2ccc(NC(=O)COc3ccc(Br)cc3C)cc2)no1`, the “activity change, negative = inhibition” value is inactive: -19.6%.
With `Cc1[nH]c(=O)[nH]c(=O)c1C1N2CC3(C(C)C)CN1CC(C(C)C)(C2)C3=O` (configuration not stated), the “activity change, negative = inhibition” value was inactive: -11.5%.
On to `CCOC(=O)c1ccc(NC(=O)CN2C(=O)c3cccnc3Oc3ccc(Cl)cc32)cc1`, for which the “activity change, negative = inhibition” value was inactive: 1.32%.
The same measure for `Cc1ccc(N2CCn3c2nc2c3c(=O)n(CCc3ccccc3)c(=O)n2C)cc1C`: inactive: -5.75%.
